Source: PubChem BioAssay AID485344 (National Center for Advancing Translational Sciences (NCATS), 2010)
Out of some 340,000 compounds screened, about 6,900 (2%) were called active. No stated cut-off is given here; in the data, active means inhibition above about 30%; inactive means below that, where a call was filed. The entries are a selection whose mix differs from that of the whole data set. The source gives no active or inactive call for entries shown without one.
Further: 0% is about no effect.

These compounds were tested against D(2) dopamine receptor (Homo sapiens) (UniProt P14416) (assay: HTS Assay for Allosteric Antagonists of the Human D2 Dopamine Receptor: Primary Screen for Antagonists). Conditions: HEK293 TREx D2 cells, calcium flux, dopamine EC80; at 10 µM; stronger effect = higher value.
UniProt P14416, sequence (P14416 whole entry, looked up): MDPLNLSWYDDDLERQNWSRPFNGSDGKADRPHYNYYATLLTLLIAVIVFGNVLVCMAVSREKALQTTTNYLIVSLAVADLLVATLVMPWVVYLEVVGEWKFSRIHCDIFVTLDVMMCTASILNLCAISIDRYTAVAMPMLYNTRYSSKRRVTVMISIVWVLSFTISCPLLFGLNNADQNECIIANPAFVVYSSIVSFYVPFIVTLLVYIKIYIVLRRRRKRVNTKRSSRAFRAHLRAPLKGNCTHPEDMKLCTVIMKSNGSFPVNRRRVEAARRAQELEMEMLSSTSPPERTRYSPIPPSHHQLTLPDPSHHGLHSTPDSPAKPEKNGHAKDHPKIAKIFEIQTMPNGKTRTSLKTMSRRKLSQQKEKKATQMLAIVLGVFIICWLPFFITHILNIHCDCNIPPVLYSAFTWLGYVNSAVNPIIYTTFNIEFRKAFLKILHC
In short: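 Cells plated overnight at 30 C with tetracycline; no-wash calcium dye, 30–90 min RT; 10 s baseline; compound pinned; 180 s read; EC80 dopamine added; another 180 s read.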
Compound `Cc1cc2oc(C(=O)N(Cc3ccc(N(C)C)cc3)Cc3ccco3)c(C)c2cc1Cl` has an inhibition of 5.89%.
For `Cc1ccccc1Nc1nc(N)c(C(=O)c2ccccc2Cl)s1`, the inhibition was 12.5%.
With `Cc1ccc(C(=O)Nc2cccc3[nH]c(C(F)(F)F)nc23)cc1` the inhibition was active: 33.6%.
`CCCCc1ccc(NC(=O)CSc2nc(=O)[nH]c3c2CCCC3)cc1` gave an inhibition of 10.2%.
Work on `Cc1ccc(N2C(=O)CSC23C(=O)N(CC(=O)NCc2ccccc2)c2ccccc23)cc1` (centres undefined) yielded an inhibition of -4%.
`O=C(CN1C(=O)C2(SCC(=O)N2c2ccc(F)cc2)c2ccccc21)NC1CCCCC1` (centres undefined) gave an inhibition of 0.869%.
`Cc1ccc2c(c1)C(=O)OC(C(=O)Nc1ccccc1C(=O)O)C2` (centres undefined) showed an inhibition of 1.89%.
`O=S(=O)(Nc1ccc(-c2cn3ccccc3n2)cc1)c1ccccc1` was tested, and the inhibition was active: 40%.
Compound `CC1=C(c2ccc(C)c(C)c2)S(=O)(=O)N(Cc2ccc(C(=O)Nc3cc(F)ccc3F)cc2)C1=O` has an inhibition of -0.913%.
`Cc1ccc(N2CC(NC(=O)c3cccs3)CC2=O)cc1` (centres undefined) showed an inhibition of 0.174%.
For `CCc1cccc(CC)c1NC(=O)c1c(C)oc2ccc(O)c(CN3CCCC3)c12`, the inhibition was -6.54%.
In the case of `O=C(CCCN1C(=O)c2cccnc2Oc2ccc(Cl)cc21)NCc1ccc(F)cc1`, the inhibition is reported as 5.27%.
For `CN1CCN(CCNC(=O)c2cnn(-c3ccc(F)cc3)c2C2CCN(C(=O)OC(C)(C)C)CC2)CC1`, the inhibition was -6.16%.
`Cc1cccc(C)c1OCC(=O)N(Cc1ccco1)Cc1ccco1` showed an inhibition of -1.97%.
In the case of `Cc1ccnc(NS(=O)(=O)c2ccc(NC(=O)c3ccc(C)c(C)c3)cc2)n1`, the inhibition is reported as -2.36%.
In the case of `O=C(CNC(=O)c1ccc([N+](=O)[O-])cc1)N/N=C\c1ccc(OC(=O)c2ccccc2)cc1`, the inhibition is reported as active: 59.4%.
`C=Cc1ccc(Cn2c(C)c(CNCCc3ccc(OCC)cc3)c(C(=O)O)c2C)cc1` showed an inhibition of -3.56%.
For `CCn1cc(C(=O)N2CCN(c3cccc(Cl)c3)CC2)c(=O)c2cc(S(=O)(=O)N3CCC(C)CC3)ccc21`, the inhibition was 11.5%.
For `CCOC(=O)c1c(C)[nH]c(C)c1S(=O)(=O)N1CCC(C(=O)N2CCN(c3ccc(F)cc3)CC2)CC1`, the inhibition was 22.2%.
With `O=C(N/N=C/c1ccc(Br)s1)c1c[nH]c2ccccc12` the inhibition was active: 34.1%.
`Cc1ccc2c(=O)cc(CSc3ncn[nH]3)[nH]c2c1C` gave an inhibition of -18.5%.
For `Cc1nn2c(C)c(C(=O)N3CCN(c4ccc(Cl)cc4)CC3)cnc2c1-c1ccc(F)cc1`, the inhibition was 6.01%.
Work on `O=S(=O)(c1ccc(-c2cnc(C3CC3)o2)cc1)N1CCN(c2ccccc2F)CC1` yielded an inhibition of 16.7%.
In the case of `COc1cc2c(cc1OC)n(CC(=O)c1ccc(C)cc1C)c(=O)n1nc(CCn3nc(C)cc3C)nc21`, the inhibition is reported as -0.404%.
Compound `O=C(NCCCN1CCN(c2cccc(Cl)c2)CC1)c1ccc2nc(Cc3ccccc3)oc2c1` has an inhibition of 15.3%.
For `CCOC(=O)N1CCN(C(=O)Nc2ccc3oc(C)nc3c2)CC1`, the inhibition was active: 44.4%.
With `COc1ccc(OCC(O)CN2C(=O)NC(C)(C)C2=O)cc1` (centres undefined) the inhibition was active: 31.1%.
With `COc1cccc(CNC(=O)Cn2nc(C)c3sc4ccccc4c3c2=O)c1OC` the inhibition was -3.09%.
`Cc1cccc(Nc2sc(C(=O)c3ccc(Cl)cc3)c(N)c2C(N)=O)c1` gave an inhibition of 12.3%.
With `COc1ccc(NC(=O)c2cc(-c3ccccc3F)no2)cc1` the inhibition was 5.95%.
In the case of `O=C(O)CCCC(=O)Nc1nc2n(n1)C(c1ccc(F)cc1)CC(c1ccc(Cl)cc1)N2` (centres undefined), the inhibition is reported as active: 32.3%.
Work on `CCc1ccc(NC(=O)Cn2c(=O)n(CCCC(=O)NCc3ccc4c(c3)OCO4)c(=O)c3ccccc32)cc1` yielded an inhibition of 8.26%.
`CC(=O)C1=C(c2cccc([N+](=O)[O-])c2)N(C(C)=O)n2c(nnc2-c2ccc(C)cc2)S1` showed an inhibition of -13.8%.
For `Cc1occc1C(=O)N/N=C/C=C/c1ccccc1[N+](=O)[O-]`, the inhibition was active: 37.6%.
Work on `CCOC(=O)c1c(S(=O)(=O)N2CCCC(C(=O)N3CCN(c4cc(C)ccc4C)CC3)C2)c(C)n(C)c1C` (centres undefined) yielded an inhibition of 0.751%.
Work on `CCOC(=O)C(CC)N1CCN(Cc2ccc(F)cc2)C(=O)C1=O` (centres undefined) yielded an inhibition of 10.7%.
In the case of `O=C(Nc1nc2c(F)cccc2s1)c1ccc(S(=O)(=O)N2CCCc3ccccc32)cc1`, the inhibition is reported as -2.38%.
For `CCn1nc(C)c2c(-c3ccccc3)cc(=O)n(C(C)C(=O)Nc3cc(C)ccc3C)c21` (centres undefined), the inhibition was 5.49%.
Work on `COc1ccc(-c2ccc(NS(=O)(=O)c3cc(C)c(C)cc3C)cc2)nn1` yielded an inhibition of 9.69%.
For `O=C(c1ccc(F)cc1)C1CCN(CCn2c(=O)[nH]c3ccccc3c2=O)CC1`, the inhibition was active: 58.4%.
`Cc1c(C)n(-c2ccccc2)c2ncnc(NCCN(C)C)c12` was tested, and the inhibition was active: 39.7%.
Work on `CCOC(=O)c1c(NC(=O)C2c3ccccc3Oc3ccccc32)sc2c1CCC(CC)C2` (centres undefined) yielded an inhibition of -13.3%.
For `Clc1ccc(CCNC(c2ccc(Cl)cc2)c2nnc(-c3ccccc3)o2)cc1` (centres undefined), the inhibition was -12.1%.
`CCc1ccc(NC(=O)Cn2nc(SC)c(S(=O)(=O)c3ccc(OC)cc3)c2N)cc1` was tested, and the inhibition was -0.966%.
For `CC(C)c1nnc(NC(=O)CCC(=O)Nc2ccc(Cl)cc2)s1`, the inhibition was active: 40.6%.
`Cc1cc(C)cc(OCCSc2nc3ccc(NC(=O)COc4ccccc4)cc3s2)c1` showed an inhibition of -14.1%.
With `O=C(O)CCCCCCCCc1cn(Cc2ccc(C(=O)c3ccccc3)cc2)nn1` the inhibition was active: 41.6%.
In the case of `Cc1ccc(OCC(=O)Nc2nonc2-c2ccc(Br)cc2)cc1C`, the inhibition is reported as -19.6%.
`COc1ccc(-c2nnc(SCCOc3ccccc3C)o2)cc1OC` gave an inhibition of 5.66%.
For `Cc1cn(C)c(CC(=O)Nc2ccc(F)cc2Cl)c1C(=O)O`, the inhibition was 13.9%.
`O=S(=O)(c1ccc(Cl)cc1)c1nc(-c2cccs2)oc1SCc1ccccc1F` showed an inhibition of -19.2%.
Work on `CCOc1ccc(C2c3c(oc4ccc(C)cc4c3=O)C(=O)N2CCCN(C)C)cc1OC` (centres undefined) yielded an inhibition of 1.69%.
`CC(C)Oc1ccc(CNC(=O)c2sc3ncccc3c2-n2cccc2)cc1` showed an inhibition of -11.8%.
`COc1ccc(-n2nc(C(=O)Nc3ccc(C(C)=O)cc3)nc2-c2ccccc2)cc1` showed an inhibition of 9.47%.
Work on `CSc1ccc(-c2nc3cccc(C)n3c2Nc2ccc3c(c2)OCO3)cc1` yielded an inhibition of -10.1%.
With `COc1ccc(-c2nnc(SC(C)C(=O)O)o2)cc1` (centres undefined) the inhibition was -12.3%.
`O=C(CN1C(=O)CSc2ccc(S(=O)(=O)N3CCCC3)cc21)NCc1ccccc1Cl` was tested, and the inhibition was 5.86%.
In the case of `Cc1ccc(OCC(=O)Nc2c(C(=O)c3ccc(Cl)cc3)oc3ccccc23)cc1C`, the inhibition is reported as -18.6%.
In the case of `COc1ccc(N2CCN(C(=O)c3cc(S(=O)(=O)N4CCCCCC4)ccc3OC)CC2)cc1`, the inhibition is reported as active: 39.8%.
In the case of `CC(=O)N1CCCc2cc(S(=O)(=O)N3CCCC(C(=O)NC(C)C)C3)ccc21` (centres undefined), the inhibition is reported as 20.4%.
Work on `CCCCNC(=O)CCc1c(C)nc2cc(-c3ccccc3)nn2c1C` yielded an inhibition of 5.79%.
In the case of `COc1ccc(N2C(=O)C(CC(=O)Nc3ccccc3)N(CCC3=CCCCC3)C2=O)cc1` (centres undefined), the inhibition is reported as 3.35%.
`Cc1[nH]c2ccccc2c1C1(O)C(=O)N(Cc2ccccc2)c2ccc(Cl)cc21` (centres undefined) showed an inhibition of 5.03%.
`CCc1ccccc1-n1cnc2cc(C(=O)NC3CCCCCC3)ccc21` was tested, and the inhibition was -10.8%.
`COc1ccccc1N1CCN(S(=O)(=O)c2ccc(F)c(C(=O)Nc3ccc(Cl)cc3C(F)(F)F)c2)CC1` gave an inhibition of 8.41%.
For `O=C(CCn1c(=O)sc2ccccc21)NCc1ccco1`, the inhibition was active: 41.8%.
Compound `O=C(Nc1ccccc1Cl)[C@H](CSCc1ccccc1)N1Cc2ccccc2C1=O` has an inhibition of 2.95%.
In the case of `O=C(c1ccc2c(c1)CCN2S(=O)(=O)c1ccccc1)N1CCN(c2ccccc2F)CC1`, the inhibition is reported as -2.48%.
`CC(C)c1ccc(CNC(=O)c2ccc(N3CCCC3)c(NC(=O)NCc3ccccc3)c2)cc1` showed an inhibition of -16.3%.
`CCc1ccc2occ(CC(=O)Nc3ccc(OC)c(Cl)c3)c2c1` was tested, and the inhibition was 23.9%.
With `Cc1nc(SCC(=O)Nc2ccc(C)c(Cl)c2)cc(-c2ccccc2)n1` the inhibition was 8.55%.
`CCOc1ccc(C(=O)Oc2c(Sc3ccccc3)c(C)nn2C(C)(C)C)cc1OCC` showed an inhibition of 1.32%.
`COCCn1c(SCC(=O)Nc2ccccc2OC)nc2ccccc21` was tested, and the inhibition was active: 34.6%.
`CC(=O)c1ccc(NC(=O)Nc2sc3nc4n(c(=O)c3c2C)CCC(C)CC4)cc1` (centres undefined) gave an inhibition of -4.47%.
For `COc1ccc(CN(Cc2ccco2)C(=O)COc2ccccc2OC)cc1`, the inhibition was -6.3%.
With `Cc1nc(Nc2cccc(O)c2)c2oc3ccccc3c2n1` the inhibition was active: 32.6%.
For `COc1ccccc1N1CCN(C2CCCN(S(=O)(=O)c3cccc(Cl)c3)C2)CC1` (centres undefined), the inhibition was active: 53.3%.
Work on `CN(C(=O)c1cnc(N2CCOCC2)c2ccccc12)c1ccccc1F` yielded an inhibition of -13.8%.
With `CCn1nc(-c2ccccc2)c(-c2ccccc2)c(C(=O)Nc2ccccc2C(N)=O)c1=O` the inhibition was -0.67%.
Compound `O=C(Cc1ccccc1)NC1CC(=O)N(c2ccc3c(c2)OCCO3)C1` (centres undefined) has an inhibition of -18.3%.
`Cc1c(CC(=O)N2CCCCC2)c(=O)oc2c(C)c(O)ccc12` showed an inhibition of -5.71%.
`CCN(CC)c1ccc(NC(=O)C(NS(=O)(=O)c2cccs2)C(C)C)c(C)c1` (centres undefined) gave an inhibition of -2.08%.
`O=C(OCc1ccccc1F)c1ccc(-c2nnn(Cc3ccccc3)n2)cc1` was tested, and the inhibition was -1.65%.
With `O=C1c2ccccc2-c2onc3c(Br)cc(NC4CCCCC4)c1c23` the inhibition was 0.611%.
Work on `Cc1cccc(N2C(=O)CSC23C(=O)N(CC(=O)NCCc2ccccc2)c2ccccc23)c1` (centres undefined) yielded an inhibition of 2.62%.
With `O=C(CSc1nnc(-c2cccs2)o1)Nc1cccc(C(F)(F)F)c1` the inhibition was -23.4%.
`COc1ccc(-c2cc(C(F)(F)F)n3nc(-c4ccc(Cl)cc4)cc3n2)cc1OC` showed an inhibition of 3.43%.
In the case of `Nc1nc(CN2CCN(c3ccc(F)cc3)CC2)nc(N2CCCc3ccccc32)n1`, the inhibition is reported as active: 54.4%.
`COCCNC(=O)CSc1nc2cc3c(cc2c(=O)n1CCCCCC(=O)NCCc1ccc(OC)c(OC)c1)OCO3` gave an inhibition of 13.8%.
`Cc1ccc(N2CCN(Cc3nnc(-c4ccc5c(c4)OCO5)o3)CC2)c(C)c1` showed an inhibition of 6.8%.
`COc1ccccc1N1CCN(C(=O)c2ccc3c(c2)N(Cc2ccccc2)C(=O)c2ccccc2S3(=O)=O)CC1` was tested, and the inhibition was -11.9%.
Compound `Cc1cc(C)cc(NC(=O)CSCc2cc(=O)c3cc(Cl)ccc3[nH]2)c1` has an inhibition of -19.3%.
With `Cc1c(-c2nc(-c3ccc4c(c3)[nH]c(=O)n4C)no2)cccc1[N+](=O)[O-]` the inhibition was 13.8%.
In the case of `Cc1ccc(-c2c[n+](Cc3ccc(Cl)c(Cl)c3)c3n2CCC3)cc1`, the inhibition is reported as active: 30.4%.
